{"source": "paper PMC12040169", "about": "(PLOS Biology, 2025)", "note": "Some of the results follow.", "data": [{"system": "T1, C. trachomatis L2/434/Bu expressing GFP (CTL2-GFP)", "T1 construct": "L2/434/Bu GFP intracellular growth in HeLa cells", "design": "species or system HeLa; C. trachomatis total inclusion area by high-content imaging, normalised to DMSO", "details": "total inclusion area; 28.5 h, 10 µM; inhibitor", "how_it_was_run": "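Post-fluorescence-read fixation, DNA staining with Hoechst and high-content imaging; GFP inclusion area and number per well, and nuclei counts, used as proxies for bacterial growth and host viability.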", "values": [{"compound": "COc1ccccc1N1CCn2c1nc1c2c(=O)n(CCN2CCOCC2)c(=O)n1C", "note": "[CBK269265]", "% of control remaining": 139.569}, {"compound": "Cc1ccc(/C=C/C(=O)N2CCC3(CC2)CC(=O)c2cc(Cl)ccc2O3)cc1", "note": "[CBK156439]", "% of control remaining": 105.579}, {"compound": "O=C1CC[C@H](NC(=O)c2cccs2)C(c2cccnc2)N1", "note": "(stereo partly shown) [CBK282901]", "% of control remaining": 98.7717}, {"compound": "Cc1nnc(CCNC(=O)c2cccc(C#N)c2)n1C", "note": "[CBK306017]", "% of control remaining": 73.0778}, {"compound": "Cc1nc(N)sc1-c1nnc(SC/C=C/c2ccccc2)n1C", "note": "[CBK269383]", "% of control remaining": 105.925}, {"compound": "Cn1cc(C(=O)OCc2cccc(S(=O)(=O)N3CCOCC3)c2)cn1", "note": "[CBK305721]", "% of control remaining": 60.2021}, {"compound": "CN1CCC2CN(CCCC(c3ccc(F)cc3)c3ccc(F)cc3)CCN2C1=O", "note": "(stereo not shown) [CBK024865C]", "% of control remaining": 49.8978}, {"compound": "S=c1n(CN2CCC(c3ccccc3)CC2)nc(Cc2ccccc2)n1-c1ccccc1", "note": "[CBK265037]", "% of control remaining": 103.661}, {"compound": "CN1CCN(C(=O)c2cccc(-c3ncc(OCC(F)(F)F)nc3N)c2)CC1", "note": "[CBK145196]", "% of control remaining": 60.0228}, {"compound": "CN1CCN(c2nccnc2-c2cccc(F)c2)CC1", "note": "[CBK036876]", "% of control remaining": 93.1318}, {"compound": "CCn1c(C)nc2cc(NC(=O)Cn3cccn3)ccc21", "note": "[CBK281828]", "% of control remaining": 101.405}, {"compound": "COc1nccnc1OC1CCN(CC2CCCCC2)CC1", "note": "[CBK084263]", "% of control remaining": 84.761}, {"compound": "O=C(Cc1ccc(Cl)cc1Cl)Nc1ccc2ncccc2c1", "note": "[CBK159787]", "% of control remaining": 92.132}, {"compound": "CC1Cc2cc(C(O)CN3CCCCC3)ccc2N1C(=O)C1CC1", "note": "(stereo not shown) [CBK283144]", "% of control remaining": 109.836}, {"compound": "CC(=O)N1CCC[C@@H](N)[C@@H]1c1ccccc1F", "note": "[CBK281562]", "% of control remaining": 86.0872}, {"compound": "Cc1ccccc1OCC(=O)Nc1ccc(CSc2ccccc2)cc1", "note": "[CBK264651]", "% of control remaining": 84.1141}, {"compound": "Cc1ccc(Cl)cc1-n1cc(-c2ccc(F)cc2F)nn1", "note": "[CBK112995]", "% of control remaining": 84.3932}, {"compound": "CCN1C(=O)c2ccccc2C(=O)[C@@]2(C)CN(C)C[C@@H]12", "note": "[CBK283478]", "% of control remaining": 93.5441}, {"compound": "CCOC(=O)c1cccc(NS(=O)(=O)c2c(C)noc2C)c1", "note": "[CBK034339]", "% of control remaining": 112.347}, {"compound": "Cc1ccc(C)c(NC(=S)NCCc2ccc(S(N)(=O)=O)cc2)c1", "note": "[CBK264879]", "% of control remaining": 98.594}, {"compound": "COC(=O)c1ccc(OCc2nnn[nH]2)cc1", "note": "[CBK269544]", "% of control remaining": 99.5827}, {"compound": "Nc1ncc(-c2cncnc2)nc1NC1CC1", "note": "[CBK063869]", "% of control remaining": 111.043}, {"compound": "CCc1ccc(CCC(=O)N2CCN(S(=O)(=O)c3sc(C(=O)O)c(C)c3C(=O)O)CC2)cc1", "note": "[CBK297138]", "% of control remaining": 105.414}, {"compound": "CN(C)CCCNC(=O)Nc1cccc(-c2nc(-c3ccc(C#N)cc3)cnc2N)c1", "note": "[CBK116287]", "% of control remaining": 25.7928}, {"compound": "O=c1[nH]c(=O)c2cc(S(=O)(=O)NCC3(c4ccccc4)CCCC3)ccc2[nH]1", "note": "[CBK286387]", "% of control remaining": 127.418}, {"compound": "Cn1nc(NC(=O)CC(C)(C)CC(=O)O)c2c(F)cccc21", "note": "[CBK057122]", "% of control remaining": 39.5079}, {"compound": "COc1c(O)ccc(/C=N/NC(=O)COc2c(Br)cc(Br)cc2Br)c1[N+](=O)[O-]", "note": "[CBK261957]", "% of control remaining": 92.4987}, {"compound": "COCCNc1nc(-c2ccc(C(C)=O)s2)ccc1C(=O)N(C)CCN(C)C", "note": "[CBK105914]", "% of control remaining": 77.1815}, {"compound": "COc1ccccc1CC(=O)N[C@@H]1CCN(Cc2cccnc2)C[C@H]1O", "note": "[CBK307200]", "% of control remaining": 69.1677}, {"compound": "CC(C)c1nnc(NS(=O)(=O)Cc2ccccc2)s1", "note": "[CBK045540]", "% of control remaining": 83.033}, {"compound": "COc1ccc(Cl)cc1N1CCN(CC2CCCCC2)CC1", "note": "[CBK138336]", "% of control remaining": 102.378}, {"compound": "CCN1CCCC1CNC(=O)c1ccc(-c2ccc(OC)cc2)nc1N(C)C(C)=O", "note": "(stereo not shown) [CBK076491]", "% of control remaining": 91.426}, {"compound": "Cc1cc(Sc2ncnc(N)c2[N+](=O)[O-])ncn1", "note": "[CBK267235]", "% of control remaining": 6.441}, {"compound": "CC(=O)Nc1ccc(-c2cncc(N3CCN(CCN4CCCC4)CC3)n2)cc1", "note": "[CBK065710]", "% of control remaining": 128.588}, {"compound": "CC(=O)NCc1ccc(-c2cc(CN(C)C)n(C)n2)cc1", "note": "[CBK281667]", "% of control remaining": 87.4033}, {"compound": "O=C(Cc1ccccc1Cl)N1CCC(O)(c2cccnc2F)CC1", "note": "[CBK284360]", "% of control remaining": 71.3587}, {"compound": "Cc1nn(C)c(Cl)c1S(=O)(=O)NC1(c2ccc(F)cc2)CC1", "note": "[CBK282800]", "% of control remaining": 106.566}, {"compound": "Cc1cc(C)c(C)c(CSCc2nc3ccccc3[nH]2)c1C", "note": "[CBK266466]", "% of control remaining": 101.006}, {"compound": "CC(C)(CSc1ccccn1)NS(=O)(=O)c1ccccc1", "note": "[CBK268513]", "% of control remaining": 92.3358}, {"compound": "O=C1CCCN1c1ccc(S(=O)(=O)N(c2ccccc2)C2CCNCC2)cc1", "note": "[CBK165122T]", "% of control remaining": 56.4916}, {"compound": "O=C(O)C1C2CCC(CC2)C1C(=O)N1CCN(Cc2ccccc2Cl)CC1", "note": "(stereo not shown) [CBK270336]", "% of control remaining": 102.301}, {"compound": "CCNC(=O)C1CCN(Cc2nc(-c3cc(OC)ccc3F)oc2C)C1", "note": "(stereo not shown) [CBK307040]", "% of control remaining": 42.0164}, {"compound": "c1ccc(SCc2csc(-c3ccc4c(c3)OCO4)n2)nc1", "note": "[CBK270294]", "% of control remaining": 101.97}, {"compound": "CCCc1cc(O)nc(SCC(=O)Nc2ccc(Cl)cc2Cl)n1", "note": "[CBK265147]", "% of control remaining": 89.9451}, {"compound": "COCCNc1nc2c([nH]1)c(=O)n(C)c(=O)n2C", "note": "[CBK288104]", "% of control remaining": 98.444}, {"compound": "CCn1c(=O)n(CC(=O)N2CCC(C)CC2)c2cccnc21", "note": "[CBK283895]", "% of control remaining": 97.4749}, {"compound": "O=P(O)(CNCc1ccccc1)CNCc1ccccc1", "note": "[CBK261604C]", "% of control remaining": 90.1762}, {"compound": "Cc1nccn1CCNC(=O)Cn1cnc2ccccc21", "note": "[CBK281983]", "% of control remaining": 120.854}, {"compound": "CCOc1ccc(/N=N\\c2ccc(O)c(/C=N\\Nc3ccc([N+](=O)[O-])cc3)c2)cc1", "note": "[CBK262111]", "% of control remaining": 106.594}, {"compound": "CCN1CC2(CCN(Cc3ccc4nsnc4c3)CC2)c2ccccc21", "note": "[CBK136994]", "% of control remaining": 111.575}, {"compound": "COc1ncc(-c2cncc(N3CCN(CCO)CC3)n2)c(OC)n1", "note": "[CBK065146]", "% of control remaining": 124.818}, {"compound": "CCCCSc1nc(N)cc(N2CCCC(N3CCCC3=O)C2)n1", "note": "(stereo not shown) [CBK306995]", "% of control remaining": 87.8466}]}]}
